This note sets out measurements from PubChem BioAssay AID1159614 (National Center for Advancing Translational Sciences (NCATS), 2016).

Molecules are shown by their SMILES. In all, about 45,000 compounds went through this assay and about 65 (0.1%) were called active. Calls follow the shape of the dose curve; as a rule, active = well fitted activation curve with a large enough effect; inconclusive = small, poorly fitted or top-dose-only effect; inactive = no such curve, though single readings can be large or run the other way. Some of the results follow.

UniProt P54803, sequence (P54803 whole entry, looked up): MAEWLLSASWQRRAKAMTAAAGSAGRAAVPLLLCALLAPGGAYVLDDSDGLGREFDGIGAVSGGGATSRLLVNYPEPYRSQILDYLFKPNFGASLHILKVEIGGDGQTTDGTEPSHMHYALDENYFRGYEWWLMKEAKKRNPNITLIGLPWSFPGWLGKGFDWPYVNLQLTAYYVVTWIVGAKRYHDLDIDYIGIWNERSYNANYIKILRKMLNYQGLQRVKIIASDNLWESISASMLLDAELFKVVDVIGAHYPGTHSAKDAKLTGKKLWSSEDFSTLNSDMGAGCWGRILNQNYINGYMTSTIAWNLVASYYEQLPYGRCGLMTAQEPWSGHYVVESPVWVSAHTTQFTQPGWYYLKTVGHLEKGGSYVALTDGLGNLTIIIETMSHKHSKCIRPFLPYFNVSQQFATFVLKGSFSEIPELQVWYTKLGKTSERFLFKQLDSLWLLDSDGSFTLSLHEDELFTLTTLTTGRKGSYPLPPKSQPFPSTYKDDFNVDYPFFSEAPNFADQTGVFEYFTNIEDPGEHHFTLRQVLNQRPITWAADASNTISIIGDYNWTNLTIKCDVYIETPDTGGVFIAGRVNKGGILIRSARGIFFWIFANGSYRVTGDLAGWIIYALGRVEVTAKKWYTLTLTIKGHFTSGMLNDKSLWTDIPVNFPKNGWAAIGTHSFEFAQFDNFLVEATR

For this assay, the target named is Galactocerebrosidase (Homo sapiens) (UniProt P54803). The assay can be described thus: A Novel Cell-Based Assay to Identify Small Molecules for B -Galactocerebrosidase. Also: 0% is about no effect; nearly all actives have a fitted effect of over 65% in size. The following applies: 145M-Twi-hGALC-G270D cells (Twitcher mouse brain line with human GALC G270D), HMU-beta-Gal fluorescence, 48 h; series mostly up to 57.5 µM; activation: at the top concentration. The procedure, abridged:
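Fluorescence readout: HMU-β-gal cleavage by mutant GALC (0.1 mM final, citrate/phosphate pH 5.2 with 1 mg/mL taurocholate), stopped with carbonate/bicarbonate plus Triton X-100. Cells: murine Twitcher 145M-Twi expressing human G270D GALC; qHTS for activators.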
In the case of `COc1cccc(-n2c(=O)c3c4c(sc3n(Cc3ccccc3C#N)c2=O)CCCC4)c1`, the “activation” value was inactive: -17.5%.

With `O=S(=O)(NCC(c1ccco1)N1CCOCC1)c1ccc(Br)cc1` (configuration not stated), the “activation” value was inactive: -8.03%.

For `Cc1ccccc1-c1ccnc2[nH]n(-c3ccccc3)c(=O)c12`, the “activation” value was inactive: -5.53%.

Take `Cc1ccccc1NC(=O)c1cn(-c2ccccc2)nc1-c1ccccc1`: the “activation” value was inactive: -5.15%.

On to `COc1ccc(OC)c(CN2CCN(S(=O)(=O)c3ccccc3)CC2)c1`, for which the “activation” value was inactive: -15.4%.

With `O=C(NCCc1ccccc1)c1ccc2nc(N3CCCCC3)sc2c1`, the “activation” value was inactive: -12.2%.

In the case of `CCOc1ccc(NC(=O)c2sc3nc4c(c(-c5ccccc5)c3c2N)C(=O)CC(C)(C)C4)cc1`, the “activation” value is inactive: -7.02%.

As for `CCCn1c2ccccc2c2cnn(CC(=O)NCCCN3CCCCC3)c(=O)c21`, the “activation” value is inactive: -10.7%.

Turning to `OCC(O)CS` (configuration not stated), the “activation” value was inactive: -16.3%.

For `CCOc1cc(C2C(C(=O)OC)=C(C)NC3=C2C(=O)c2ccccc23)ccc1OC` (configuration not stated), the “activation” value was inactive: -11.6%.

Consider `Cc1ccc(S(=O)(=O)c2cnc(SCC(=O)Nc3ccc4c(c3)OCCO4)[nH]c2=O)cc1Cl`, for which the “activation” value was inactive: 1.52%.

As for `CCOC(=O)c1c(NC(=O)CSc2cn(CCNC(=O)c3cccc(C(F)(F)F)c3)c3ccccc23)sc2c1CCC2`, the “activation” value is inactive: -5.85%.

With `Cc1ccc2oc(C(=O)N(Cc3ccc(N(C)C)cc3)CC3CCCO3)c(C)c2c1` (configuration not stated), the “activation” value is inactive: 2.52%.

For `COc1cccc(C(=O)Nc2nc3ccc(S(=O)(=O)N4CCCC4)cc3s2)c1`, the “activation” value was inactive: -11.3%.

Consider `O=C(Nc1ccc(Br)cc1)c1cc(-c2cccs2)nc2ccccc12`, for which the “activation” value was inactive: -16.1%.

On to `CN1CCC(=C2c3ccccc3CCc3sccc32)CC1`, for which the “activation” value was inactive: -16.5%.

For the compound `CC(NC(=O)C1CCN(S(=O)(=O)c2ccc(F)cc2)CC1)c1ccccc1` (configuration not stated), the “activation” value is inactive: -5.06%.

Turning to `CN(C)CCNC(=O)C1CCN(c2ncnc3c2nc2n3CCCCC2)CC1`, the “activation” value is inactive: 11.2%.

Take `O=C(Cn1ncc2c3ccccc3n(Cc3ccc(Cl)cc3)c2c1=O)NCCC1=CCCCC1`: the “activation” value was inactive: -14%.

With `O=C1CSC2(C(=O)N(Cc3ccccc3F)c3ccccc32)N1c1cccc(C(F)(F)F)c1` (configuration not stated), the “activation” value was inactive: -41.6%.

Regarding `CC(C)Oc1ccc(C(=O)N2CCC(c3nc4ccccc4o3)CC2)cc1`, the “activation” value is inactive: -8.78%.

In the case of `COc1ccc(-c2cc(C(=O)Oc3ccc(C)cc3)c3ccccc3n2)cc1`, the “activation” value is inactive: -16.5%.

Take `Cc1ccc(NS(=O)(=O)c2ccc(-c3cnc(C4CC4)o3)cc2)cc1N(C)C`: the “activation” value was inactive: -1.61%.

For the compound `COc1cc(NC(=O)CSc2ncc3c(n2)-c2ccc(Cl)cc2N(Cc2ccccc2)S3(=O)=O)cc(OC)c1`, the “activation” value is inactive: -11.3%.

In the case of `CC(=O)Nc1ccc(NC(=O)CSc2nccn2Cc2ccc3c(c2)OCO3)cc1`, the “activation” value was inactive: -16.4%.

Regarding `CC(C)c1ccc(NC(=O)CSC2=Nc3ccccc3C3=NC(CC(=O)NCc4cccs4)C(=O)N23)cc1` (configuration not stated), the “activation” value was inactive: -11.6%.

Take `Cc1nc(-c2cccc(F)c2)sc1CCNC(=O)c1c(F)cccc1Cl`: the “activation” value is inactive: -14.4%.
